Test results published in PubChem BioAssay AID504832 (National Center for Advancing Translational Sciences (NCATS), 2011).
Among all 310,000 compounds or so, about 18,000 (5.8%) were called active. The inconclusive results got no clear call from the source; some entries with a clear call stand among them for comparison. Calls come from the whole dose curve; as a rule, active = well fitted inhibition curve with a large enough effect; inconclusive = small, poorly fitted or top-dose-only effect, or another doubt; inactive = no such curve, though single readings can be large or run the other way. No potency is given beside an inconclusive call; the fits are too rough.
Potency is the fitted concentration of half-maximal effect; tags give direction and shape of the fitted curve.

Test: Primary qHTS for delayed death inhibitors of the malarial parasite plastid, 48 hour incubation
Conditions: P. falciparum luciferase growth in erythrocytes; series mostly up to 28.7 µM
Outline: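 First compound was added to culture medium, then infected red cells at 0.1% parasitemia and 2% hematocrit (final). After incubation at 37 C under 5% CO2, luciferase detection reagent was dispensed and light output recorded.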
For `Cc1ccc(C(c2c(C)nn(-c3ccccc3)c2N)c2c(C)nn(-c3ccccc3)c2N)cc1`, the Potency was active: 10.4 µM. For `CCCn1nc(NC(=O)c2cccs2)c2cc3ccccc3nc21`, the Potency was inconclusive [inhibitor, single point]. With `COc1ccc(S(=O)(=O)NNC(=O)Nc2ccc(C)cc2C)c(OC)c1` the Potency was “inactive”. With `Nc1ccc(-c2nc3nc(N)nc(N)c3nc2-c2ccc(N)cc2)cc1` the Potency was active: 10.4 µM. With `CC1(C)CC(=O)C2=C(C1)NC1=C(C(=O)c3ccccc31)C2c1ccc(O)cc1` (configuration not stated) the Potency was inconclusive [inhibitor, partial curve]. For `COc1ccccc1N1C(=O)CC(Sc2n[nH]c(-c3cccc(C)c3)n2)C1=O` (configuration not stated), the Potency was “inactive”. For `Cc1cccc(CSc2nnc3c(n2)[nH]c2ccccc23)c1`, the Potency was active: 1.47 µM. For `COc1ccc(C2c3[nH]c4ccccc4c3C[C@H]3C(=O)N(c4ccccc4C(=O)N4CCC[C@@H]4C(=O)O)C(=O)N23)cc1` (some centres not stated), the Potency was active: 11.7 µM. For `Cc1cc(NC(=O)CCC(=O)N(Cc2ccco2)C(C)(C)C(=O)NC2CCCCC2)no1`, the Potency was inconclusive [inhibitor, single point]. For `CC(C)NC(=O)C(OC(=O)c1ccccc1)C(OC(=O)c1ccccc1)C(=O)O` (configuration not stated), the Potency was inconclusive [inhibitor, full curve, poor fit]. In the case of `COc1cc(Cl)c(NC2=CC(=O)C(=O)c3ccccc32)c(OC)c1`, the Potency is reported as active: 0.37 µM. In the case of `CCCNC(=O)/C(=C/c1cn(S(=O)(=O)N(C)C)c2ccccc12)NC(=O)c1ccc(OC)cc1`, the Potency is reported as inconclusive [inhibitor, partial curve, poor fit]. For `Fc1ccc(COc2ccc(Br)cc2CNCC2CCCO2)cc1` (configuration not stated), the Potency was inconclusive [inhibitor, single point]. In the case of `CC(=O)c1c(C)[nH]c(C(=O)OCC(=O)Nc2ccc3[nH]c(=O)[nH]c3c2)c1C`, the Potency is reported as “inactive”. In the case of `COc1cc(NC(=O)CSc2nc3[nH]ncc3c(=O)n2-c2ccccc2C)cc(OC)c1OC`, the Potency is reported as active: 10.4 µM. With `Cc1onc(-c2c(Cl)cccc2Cl)c1C(=O)N=C(N)N1CC(C)OC(C)C1` (configuration not stated) the Potency was active: 3.29 µM. With `CCOC(=O)c1c(C)n(Cc2ccco2)c2ccc(O)cc12` the Potency was inconclusive [inhibitor, single point]. In the case of `CC1(c2ccc(Cl)cc2Cl)NC(=O)N(CC(=O)NC2CCCCC2)C1=O` (configuration not stated), the Potency is reported as inconclusive [inhibitor, partial curve]. With `Cc1ccc(NC(=O)C2C3C=CC4(O3)C2C(=O)N(CCN2CCOCC2)C4C(=O)NC2CCCCC2)cc1C` (configuration not stated) the Potency was “inactive”. For `CC1C/C(=C\c2ccccc2[N+](=O)[O-])c2nc3ccccc3c(C(=O)O)c2C1` (configuration not stated), the Potency was “inactive”. In the case of `Cc1ccc(Nc2nc3ccccc3[nH]2)nc1`, the Potency is reported as active: 3.29 µM. With `O=C(Nc1ccc(S(=O)(=O)N2CCc3ccccc3C2)cc1)C1CCCO1` (configuration not stated) the Potency was inconclusive [inhibitor, single point]. In the case of `C(=C\c1nc(N2CCCC2)c2ccccc2n1)/c1ccccc1`, the Potency is reported as “inactive”. In the case of `COc1cc2cc(CN(CCc3ccccc3C)C(=S)NCCCN3CCOCC3)c(=O)[nH]c2cc1OC`, the Potency is reported as active: 7.38 µM. For `CC(=O)c1cccc(NC(=O)c2ccoc2C)c1`, the Potency was “inactive”. With `CC(=O)Nc1ccc(NS(=O)(=O)c2ccc(Cl)s2)cc1` the Potency was inconclusive [inhibitor, single point]. For `Cc1ccc(N(CC(=O)Nc2cc(C)cc(C)c2)S(=O)(=O)c2c(C)noc2C)cc1`, the Potency was “inactive”. In the case of `O=C(COC(=O)/C=C/c1ccco1)NCc1ccco1`, the Potency is reported as “inactive”. In the case of `O=P(Cc1ccccc1O)(c1ccccc1)c1ccccc1`, the Potency is reported as “inactive”. In the case of `COc1ccccc1CNC(=O)CN(c1ccc(C)cc1)S(=O)(=O)c1c(C)noc1C`, the Potency is reported as inconclusive [inhibitor, partial curve, poor fit]. For `CCn1c(SCC(=O)Nc2cc(C)nn2-c2ccccc2)nnc1-c1cccs1`, the Potency was “inactive”. With `O=C(C(=O)N1CCN(c2cccc(Cl)c2)CC1)c1cn(CC(=O)N2CCOCC2)c2ccccc12` the Potency was inconclusive [inhibitor, partial curve, poor fit]. For `CCCCC(=O)OCC(=O)Nc1cccc(S(=O)(=O)NC2=NCCCCC2)c1`, the Potency was inconclusive [inhibitor, partial curve, poor fit]. For `Cc1ccc(N2CC(C(=O)N3CCC(C(=O)Nc4cccc(Br)c4)CC3)CC2=O)cc1` (configuration not stated), the Potency was inconclusive [inhibitor, partial curve]. For `CCOC(=O)c1c(NC(=O)CC(C)C)sc(C(C)=O)c1C`, the Potency was inconclusive [inhibitor, single point]. With `O=C(NCc1cccnc1)C(=O)NCC1OCCN1S(=O)(=O)c1ccc(F)cc1` (configuration not stated) the Potency was “inactive”. With `Cc1ccc2c(c1)C1CN(C)CCC1N2S(=O)(=O)c1ccc(C#N)cc1` (configuration not stated) the Potency was inconclusive [inhibitor, single point]. For `CC1CC(C)CN(S(=O)(=O)c2cccc(C(=O)N3CCN(c4ccc(F)cc4)CC3)c2)C1` (configuration not stated), the Potency was active: 11.7 µM. In the case of `O=C(CC1C(=O)NCCN1Cc1ccccc1C(F)(F)F)NC1CCC1` (configuration not stated), the Potency is reported as inconclusive [inhibitor, partial curve, poor fit]. With `CS(=O)(=O)Nc1ccc(C2=NN(S(C)(=O)=O)C(c3cccs3)C2)cc1` (configuration not stated) the Potency was “inactive”. For `COc1ccccc1OCC(=O)Nc1ccc(S(=O)(=O)Nc2onc(C)c2C)cc1`, the Potency was “inactive”. With `O=C(NCc1ccco1)C(Cc1ccccc1)NS(=O)(=O)c1cccc2nsnc12` (configuration not stated) the Potency was inconclusive [inhibitor, full curve, poor fit]. With `COc1ccc(NC(=O)CCl)cn1` the Potency was active: 8.28 µM. With `CC(=O)C1=C(O)C(=O)N(Cc2ccccc2)C1c1ccc(Br)cc1` (configuration not stated) the Potency was “inactive”. With `O=C1CC2(CCN(C(=O)c3ccc(F)cc3)CC2)Oc2ccccc21` the Potency was “inactive”. For `c1ccc(-c2ccccc2OCCOCCN2CCCCC2)cc1`, the Potency was inconclusive [inhibitor, single point]. For `O=C(CN1CCN(c2cccc(Cl)c2)CC1)Nc1ccc(S(=O)(=O)N2CCOCC2)cc1`, the Potency was active: 10.4 µM. For `COc1ccc(CCC(=O)N2CCN(c3cccc(C)c3C)CC2)cc1`, the Potency was inconclusive [inhibitor, partial curve, poor fit]. With `CCOC(=O)Cn1c(-c2ccccc2)cc(SC)c(C#N)c1=O` the Potency was “inactive”. For `CC(C)CN1CCN(CCCc2ccccc2)C(CCO)C1` (configuration not stated), the Potency was inconclusive [inhibitor, single point]. With `C=CCSC(=C(C#N)C#N)c1cc2c([nH]1)CCCC2` the Potency was inconclusive [inhibitor, partial curve, poor fit]. For `COc1cccc(-c2nn(-c3ccc(C)cc3)cc2C(=O)NCC2CCCO2)c1` (configuration not stated), the Potency was inconclusive [inhibitor, single point]. In the case of `CCCc1nc(SCC(=O)c2ccc(OC)cc2)c2ccccc2n1`, the Potency is reported as inconclusive [inhibitor, single point]. For `CSCCC1Nc2ccc(S(=O)(=O)N3CCOCC3)cc2NC1=O` (configuration not stated), the Potency was “inactive”. With `N#CCC(=O)Nc1ccc(C(=O)OCC(=O)NC2CCCCCC2)cc1` the Potency was inconclusive [inhibitor, single point]. With `O=c1[nH]nc(Sc2ncnc3sccc23)n1CCc1ccccc1` the Potency was active: 10.4 µM. In the case of `COc1cccc(C(=O)CSc2nnc(COc3cccc4cccnc34)o2)c1`, the Potency is reported as inconclusive [inhibitor, single point]. In the case of `O=C(CC(=O)Nc1ccccc1C(=O)O)NNC(=O)Cc1ccccc1`, the Potency is reported as inconclusive [inhibitor, partial curve, poor fit]. In the case of `Cc1ccc(N2CCC(N3CCN(C4CCCCC4)C(CCO)C3)CC2)cc1` (configuration not stated), the Potency is reported as inconclusive [inhibitor, partial curve]. In the case of `NC(=O)C1CCCN(C(=O)c2ccc(S(=O)(=O)N3CCCCCC3)cc2)C1` (configuration not stated), the Potency is reported as inconclusive [inhibitor, single point]. For `COCCSc1ccccc1C(=O)Nc1nncs1`, the Potency was “inactive”. With `COc1ccc(-c2cc(C(=O)N3CCCc4ccccc43)no2)cc1OC` the Potency was inconclusive [inhibitor, single point]. In the case of `O=C(CNC(=O)c1ccccc1F)NCc1cccnc1`, the Potency is reported as “inactive”. With `Cc1ccc(S(=O)(=O)c2nnn3c2nc(N2CCOCC2)c2ccccc23)cc1C` the Potency was inconclusive [inhibitor, single point]. In the case of `O=C1c2ccccc2NC(c2ccc(Cl)cc2Cl)N1O` (configuration not stated), the Potency is reported as inconclusive [inhibitor, single point]. In the case of `Cc1cccc(S(=O)(=O)c2c(N)n(/N=C/c3ccco3)c3nc4ccccc4nc23)c1`, the Potency is reported as active: 8.28 µM. For `Cc1ccc2c(c1)nnn2C1CCN(C(=O)NCc2ccccc2)CC1`, the Potency was inconclusive [inhibitor, partial curve, poor fit]. With `Cc1cccc(NC(=O)c2cccc(OC(=S)N3CCOCC3)c2)c1C` the Potency was “inactive”. With `CCCCCCc1cc2cc(S(=O)(=O)c3ccc(F)c(Cl)c3)c(=O)oc2cc1O` the Potency was inconclusive [inhibitor, single point]. In the case of `COCC1CCCN(C(=O)c2ccc3oc(Cc4ccc(Cl)cc4)nc3c2)C1` (configuration not stated), the Potency is reported as inconclusive [inhibitor, single point]. With `COc1cccc(C(C(=O)NC2CCCCC2)N(CC2CCCO2)C(=O)CNC(=O)c2ccco2)c1` (configuration not stated) the Potency was inconclusive [inhibitor, single point]. In the case of `CN1/C(=C\C(=S)Nc2ccccc2)C(C)(C)c2ccccc21`, the Potency is reported as inconclusive [inhibitor, single point].
